Results from PubChem BioAssay AID2546 (National Center for Advancing Translational Sciences (NCATS), 2010).
In all, about 310,000 compounds went through this assay and about 11,000 (3.5%) were called active. This list was built around the results that the source calls inconclusive (neither active nor inactive); the mix of calls is not that of the screen. Calls follow the shape of the dose curve; as a rule, active = well fitted inhibition curve with a large enough effect; inconclusive = small, poorly fitted or top-dose-only effect, or effect the other way; inactive = flat fitted curve, though single readings scatter. No potency is given beside an inconclusive call; the fits are too rough.

Assay: VP16 counterscreen qHTS for inhibitors of ROR gamma transcriptional activity;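 also: Gal4-VP16 expression switched on by copper sulfate through the metallothionein promoter; nearly all actives have a fitted effect of over 50% in size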
Conditions: Drosophila S2 Gal4-VP16 UAS-luciferase, luminescence, 20 h; series mostly up to 53.6 µM
Potency is read from the fitted curve at half-maximal effect; tags tell the direction and shape of the fitted curve.

| Structure (SMILES) | Potency |
| --- | --- |
| Cc1ccc(S(=O)(=O)N2CCN(CC(=O)N/N=C/C=C/c3ccccc3)CC2)cc1 | inconclusive [inhibitor, partial curve] |
| O=C(Oc1ccccc1C(=O)Nc1ccccc1)c1ccccc1Br | inactive |
| O=[N+]([O-])c1ccc2nc(/C=C/c3ccc(Cl)cc3)[nH]c2c1 | inconclusive [inhibitor, single point] |
| COc1ccccc1-c1nnc2sc(-c3cnccn3)nn12 | inactive |
| Cc1sc(NC(=O)CN2CCCC2)nc1-c1ccc2c(c1)CCN2C(=O)c1cccc(F)c1 | inconclusive [inhibitor, single point] |
| CC(=O)C1=C(C)NC(SCC(=O)c2ccc(C)cc2)=C(C#N)C1c1ccco1 (stereo not given) | active: 2.82 µM |
| Cc1ccc(OCC(=O)Nc2ccc(NC(=O)c3ccccc3)cc2)cc1C | inactive |
| CCOc1ccccc1C(=O)NCC(=O)O | inconclusive [activator, full curve, poor fit] |
| Cc1c(C(=O)Nc2ccc(-c3nnc4n3CCCCC4)cc2)oc2c1ccc1ccccc12 | inconclusive [inhibitor, single point] |
| CCC(=O)Nc1cccc(C(=O)/C=C/c2ccc(F)cc2)c1 | inconclusive [inhibitor, single point] |
| CC12CN(S(=O)(=O)c3ccccc3)CC(C)(CN(S(=O)(=O)c3ccccc3)C1)C2 | inconclusive [inhibitor, single point] |
| CCC1CC=CC2C1C(=O)N(Cc1ccccc1)C2c1ccoc1 (stereo not given) | inconclusive [inhibitor, single point] |
| S=c1[nH]nc(-c2ccccc2)n1/N=C/c1ccc(Cl)cc1 | inconclusive [inhibitor, partial curve] |
| Clc1ccc(-c2ccc(CNCc3ccccn3)o2)cc1 | inconclusive [inhibitor, single point] |
| COc1cc(C(=O)Nc2nccs2)cc(OC)c1OC | inconclusive [inhibitor, single point] |
| CCOc1ccc(Br)cc1S(=O)(=O)Nc1ccc(NC(=O)c2ccccc2F)cc1 | inactive |
| C=Cc1ccc(Cn2c(=O)n(C)c(=O)c3sccc32)cc1 | inconclusive [inhibitor, single point] |
| Cc1sc2nc(SCC(=O)NCc3ccco3)n(CCc3ccccc3)c(=O)c2c1C | inconclusive [inhibitor, single point] |
| N#C/C(=C\c1ccccn1)c1ccccn1 | inactive |
| O=C(NC(=O)c1ccccc1O)c1ccc2c(c1)CCO2 | inconclusive [inhibitor, partial curve, poor fit] |
| CCOC(=O)c1[nH]c2ccc(OC)cc2c1NC(=S)N1CCN(c2cccc(C)c2C)CC1 | inconclusive [inhibitor, full curve] |
| COc1ccc(NC(=O)CSc2nnc(Cc3cccs3)n2-c2ccc(C)cc2)cc1 | inactive |
| O=C(Nc1nnc(C2=COCCO2)o1)c1cccc(C(F)(F)F)c1 | active: 0.316 µM |

| Structure (SMILES) | Potency |
| --- | --- |
| S=c1[nH]c2ccccc2n1Cc1ccccc1 | active: 7.08 µM |
| CCCCCCCCCCOC(=O)NC1CCS(=O)(=O)C1 (stereo not given) | inconclusive [inhibitor, partial curve] |
| COc1ccc(C(=O)N(Cc2nc(-c3ccc(C)cc3)no2)C(C)C)cc1OC | inactive |
| CCCn1c(CNC(=O)c2ccccc2)nc2ccccc21 | inactive |
| COc1cc(/C=C2/CC/C(=C/c3ccc(O)c(OC)c3)C2=O)ccc1O | inconclusive [inhibitor, partial curve, poor fit] |
| O=C(NC(=S)NCc1ccccc1)c1cccc(Cl)c1 | active: 7.08 µM |
| Clc1cccc2c1Sc1ccccc1CC2N1CCNCC1 (stereo not given) | inconclusive [inhibitor, single point] |
| C=CCC1(O)C(=O)N2C(=C1C(=O)OCC)c1ccc3ccccc3c1CC2(C)C (stereo not given) | inactive |
| O=C(COc1ccc(F)cc1)c1c(O)cc(O)cc1O | inconclusive [inhibitor, partial curve] |
| S=c1[nH]nc(-c2ccc(Br)cc2)n1-c1ccc(Br)cc1 | inconclusive [inhibitor, partial curve] |
| CC(=C/c1ccco1)/C=N/NC(=O)CSc1nnc(SCc2ccc(C)cc2)s1 | inconclusive [inhibitor, partial curve] |
| COc1ccc(C(=O)N/N=C/c2ccc(OC)c(COc3ccc(F)cc3F)c2)cc1 | inconclusive [inhibitor, partial curve, poor fit] |
| CCOc1ccccc1CNC(=O)Cn1ccc2cc(S(=O)(=O)N3CCC(C)CC3)ccc21 | inconclusive [inhibitor, single point] |
| CC(=O)O[C@@H]1C(CO[Si](C)(C)C(C)(C)C)=C(Br)C(=O)[C@@H]2O[C@]12C | inconclusive [inhibitor, single point] |
| Cc1ccccc1-c1nc2ccccc2c(=O)n1/N=C/c1ccccc1[N+](=O)[O-] | inactive |
| CC(=O)N1c2ccc(S(=O)(=O)N3CCCC(C(=O)Nc4cccc(F)c4)C3)cc2CC1C (stereo not given) | inconclusive [inhibitor, single point] |
| O=C(Nc1nc(-c2nc3ccccc3s2)cs1)c1ccc(S(=O)(=O)N2CCOCC2)cc1 | inconclusive [inhibitor, single point] |
| CCOc1ccccc1NC(=O)c1c(NC(=O)CCC(=O)O)sc2c1CCCCC2 | inconclusive [activator, partial curve] |
| N/C(=N\OC(=O)CC(c1ccccc1)c1ccccc1)c1cccnc1 | inconclusive [inhibitor, single point] |
| CCn1c(=O)c2sccc2n(Cc2cccc(C)c2)c1=O | inactive |
| Cc1ccc(C)c(SCC(=O)NC(=O)Nc2ccc3c(c2)OCCO3)c1 | inconclusive [activator, single point] |
| CSCCCNC(=S)N1CCc2ccccc2C1 | inconclusive [activator, single point] |
